# Test results from PubChem BioAssay AID686970 (National Center for Advancing Translational Sciences (NCATS), 2013).
# Hit rate of the full screen: of about 360,000 compounds, about 6,000 (1.7%) were called active. The shares of active, inactive and inconclusive entries below differ from those in the screen. The call rests on the fitted dose curve; in most records, active means well fitted cell-killing curve with a large enough effect; inconclusive means small, poorly fitted or top-dose-only effect, or effect the other way; inactive means flat fitted curve, though single readings scatter. Potencies of inconclusive entries are left out as doubtful fits.
# Experiment: qHTS for induction of synthetic lethality in tumor cells producing 2HG: qHTS for the HT-1080-NT fibrosarcoma cell line;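 further: NT is the 2HG producing partner of a matched IDH1 knockdown line; nearly all actives have a fitted effect of over 55% in size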;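 on activity, negative = less viability: 0% = DMSO-treated cells and -100% = media-only wells without cells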
# Conditions: HT-1080-NT fibrosarcoma viability, CellTiter-Glo ATP luminescence, 48 h; activity, negative = less viability: at 46.1 µM (top of the series) unless noted
# In short: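 Viability of the 2HG-overproducing fibrosarcoma line after 48 hours of compound exposure at 37 degrees C was determined by luminescence with CellTiter-Glo, and concentration-effect curves were then fitted and categorized.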
# Potency means the concentration at half of the fitted maximal effect; tags describe the fitted curve by direction and shape.
SMILES,"activity, negative = less viability",Potency
COc1ccc(C(=O)NCc2cccnc2)cc1C(=O)NCc1cccnc1,inactive: 22.8%,
CCOC(=O)c1cccc(NC(=O)/C=C/c2ccc3c(c2)OCO3)c1,inconclusive: -27.3% [cytotoxic],
Cn1c(SCC(=O)Nc2ccccc2)nnc1-c1ccc2nonc2c1,inactive: 6.44%,
Cc1cccc(NC(=S)N2CCN(c3ccccc3F)CC2)c1C,inactive: 5.46%,
C=CCn1c(C)cc(-c2csc(NC)n2)c1C,,"inconclusive [cytotoxic, single point]"
Oc1[nH]c2ccccc2c1N=NC(=S)N1CCOCC1,,"inconclusive [cytotoxic, partial curve]"
COc1ccc(NC(=O)C2C3C=CC(C3)C2C(=O)O)cc1 (configuration not stated),,"inconclusive [cytotoxic, partial curve]"
Cc1cc(C(=O)NCCCN2CCN(c3cc(Cl)ccc3C)CC2)n(-c2ccccc2)n1,,"inconclusive [cytotoxic, single point]"
COc1ccc(-c2csc(NC(=S)NC(=O)/C=C/c3ccc(C(C)C)cc3)n2)cc1OC,inactive: 9.73%,
Cc1[nH]c2ccccc2c1C(=O)COC(=O)c1ccc2c(=O)n3c(nc2c1)CCC3,,"inconclusive [cytotoxic, single point]"
O=C(N/N=C/c1cccnc1)c1cc(-c2ccccc2)nc2ccccc12,,"inconclusive [cytotoxic, single point]"
Cc1ccc(NS(=O)(=O)c2ccc(Cl)c(C(=O)Nc3ccccc3-c3nc4ccccc4[nH]3)c2)cc1C,,active: 6.51 µM
C/C(=N\Nc1ccc(S(=O)(=O)N2CCCCC2)cn1)c1cccc(Br)c1,,"inconclusive [cytotoxic, single point]"
Cc1occc1C(=O)N/N=C/C(Br)=C/c1ccccc1,inactive: -12.2%,
CCC(=O)OCC(=O)C1(OC(=O)CC)[C@H](C)C[C@H]2[C@H]3[C@H]([C@@H](O)C[C@@]21C)[C@@]1(C)C=CC(=O)C=C1C[C@H]3Cl (some centres not stated),inconclusive: 7.5%,
COc1ccccc1NC(=O)NC(=O)c1ccccc1,inactive: -1.53%,
CC(=O)N1Cc2cc(C(=O)NCC(F)(F)F)nc(-c3cccc(-c4cccnc4)c3)c2[C@@H]1CCO,,"inconclusive [cytotoxic, full curve]"
COc1cccc(/C=N/Nc2ccnc(=O)[nH]2)c1O,,"inconclusive [cytotoxic, full curve, poor fit]"
Cc1ccc(N2CC(NS(=O)(=O)c3cccnc3)CC2=O)cc1 (configuration not stated),inactive: 0.813%,
COCCNc1nc2c(c(=O)n(Cc3cccc(Br)c3)c(=O)n2C)n1C,inactive: -0.995%,
CCCCN1CC(O)=C(c2nc3ccccc3[nH]2)C1=N,inactive: 7.81%,
COc1ccccc1Cc1c(-c2ccccc2)nc2ccc(Br)cn12,,"inconclusive [cytotoxic, single point]"
Cn1c(=O)c2c(nc(SCc3ccccc3)n2Cc2ccc(Cl)cc2)n(C)c1=O,inactive: 0.984%,
Cc1ccccc1CC(=O)c1ccc(O)c(C)c1O,,"inconclusive [cytotoxic, single point]"

SMILES,"activity, negative = less viability",Potency
Cn1c(CSCc2ccccc2)n[nH]c1=S,,"inconclusive [rising, single point]"
CCCC(=O)N1CCN(c2nc3ccc(Br)cc3s2)CC1,,"inconclusive [cytotoxic, single point]"
CC(C)(C)NC(=S)N1CCC2CC1c1cc(-c3ccc4c(c3)OCO4)ccc12 (configuration not stated),inactive: 13.3%,
Cc1oc(-c2cccc(Cl)c2)nc1CN1CCCC(C(=O)NC(C)c2ccc3c(c2)OCCO3)C1 (configuration not stated),,"inconclusive [cytotoxic, single point]"
CCCS(=O)(=O)NC(=O)C1(C)CCN(C(=O)c2ccc(OC)c(F)c2)C1 (configuration not stated),,"inconclusive [rising, partial curve, poor fit]"
CC1(C)Cc2c(sc(NC(=O)COc3ccc(Cl)cc3)c2C#N)C(C)(C)N1,,"inconclusive [cytotoxic, single point]"
CCOC(=O)c1cc2[nH]c3ccccc3c2[n+](-c2ccc([N+](=O)[O-])cc2)c1N,,"inconclusive [cytotoxic, single point]"
CCc1ccc(-c2nc(C)c(CCO)c(=O)[nH]2)cc1,,"inconclusive [rising, partial curve]"
O=c1c2ccccc2sn1-c1cc(S(=O)(=O)N2CCOCC2)ccc1N1CCOCC1,,"inconclusive [cytotoxic, single point]"
CCc1ccc(C(=O)C(C)OC(=O)C2COc3ccccc3O2)cc1 (configuration not stated),inactive: 10.9%,
CC(C)c1ccc(NC(=O)NC2CCCCC2)cc1,,"inconclusive [cytotoxic, single point]"
O=C(NCc1cc(C(F)(F)F)cc(C(F)(F)F)c1)c1cc(-c2cc(F)ccc2OCC2CCCO2)n[nH]1 (configuration not stated),inactive: 14.4%,
COC(=O)C1=C(C(=O)OC)[C@@H]2N(C)c3ccc(OC)cc3[C@@]23C[C@@H](C(=O)OC)N(S(=O)(=O)c2ccc([N+](=O)[O-])cc2)C3=N1,,"inconclusive [rising, single point]"
C[C@@H]1CC[C@]2(O[C@H](CCO)C[C@H](O)[C@H]2O)O1,inactive: 12%,
CCn1c2ccccc2c2cc(NC(=O)COc3ccccc3OC)ccc21,,"inconclusive [cytotoxic, single point]"
CCC(=O)c1ccccc1OCCCCn1cncn1,inactive: 5.56%,
CC(C)CCNc1nc2c(c(=O)n(Cc3cccc(F)c3)c(=O)n2C)n1C,,"inconclusive [cytotoxic, partial curve]"
O=C1/C(=C/c2ccc(O)c([N+](=O)[O-])c2)SC(=S)N1Cc1ccccc1,,active: 23.1 µM
O=C(/C=C/c1ccccc1)c1ccccc1,,active: 16.4 µM
O=C1NN(c2ccccc2)C(=O)C1=Cc1ccccc1,,"inconclusive [cytotoxic, partial curve]"
O=C(Nc1ccc(Cl)cn1)c1cc2c(s1)-c1ccccc1OC2,inactive: -23.1%,
COc1ccc(-n2c(C)cc(C)c(C(C)=O)c2=S)cc1,inactive: 1.77%,
CCOc1ccc(OCCSc2nc3ccccc3o2)cc1,inconclusive: 31.9%,
